In PubChem BioAssay AID485344 (National Center for Advancing Translational Sciences (NCATS), 2010):
Screen size: about 340,000 compounds; about 6,900 (2%) were called active. Cut-off read from the data, not from the text of the source: active = inhibition above about 30%; inactive = below that, where a call was filed. The entries are a selection whose mix differs from that of the whole data set. Where no call is shown, the source filed none.

Target: D(2) dopamine receptor (Homo sapiens) (UniProt P14416)
Test: HTS Assay for Allosteric Antagonists of the Human D2 Dopamine Receptor: Primary Screen for Antagonists; note: 0% is about no effect
Conditions: HEK293 TREx D2 cells, calcium flux, dopamine EC80; at 10 µM; stronger effect = higher value
From the text: NIH Chemical Genomics Center [NCGC] NIH Molecular Libraries Probe Centers Network [MLPCN] MLPCN Grant: NS064831-01 Assay Submitter (PI): David Sibley Dopamine receptors (DARs) are involved in the etiology and/or therapy of a number of neuropsychiatric and endocrine disorders. For instance, all receptor-based antiparkinsonian drugs work via stimulating the D2 DAR subtype whereas all FDA-approved antipsychotic agents are antagonists of this receptor. […] There are three different types of allosteric modulators that we are seeking, two of which will stimulate or augment receptor signaling, allosteric agonists and potentiators, while the third, allosteric antagonists, will attenuate receptor signaling. The present primary screening assay measures compound antagonism after an EC80 addition of dopamine by tracking calcium flux in a […], inducible Hek293 Trex D2 cell line.
Freshly passaged cells are plated in 1536 well black, clear bottom plates at a density of 4000 cells/well in 3 ul of complete media containing 1x tetracycline inducer. After an overnight incubation at 30 C in 5% CO2, cells are loaded with 2 ul of the no wash Calcium Assay Kit (ABD Bioquest) and incubated at room temperature for 30 to 90 minutes. Agonist read: A 10 cycle (1 second/cycle) baseline measurement is taken and then the FDSS online 1536 pintool delivers 23 nl of compound library (as well as dopamine controls) to the plate. The plate is measured for kinetically at 1 cycle/sec for 180 seconds. Following the 180 second read, 1 ul of an EC80 (negative modulation assay) is delivered by an onboard pipette head. Measurements are taken kinetically for an additional 180 seconds.

Chain of UniProt P14416 (P14416 whole entry, looked up): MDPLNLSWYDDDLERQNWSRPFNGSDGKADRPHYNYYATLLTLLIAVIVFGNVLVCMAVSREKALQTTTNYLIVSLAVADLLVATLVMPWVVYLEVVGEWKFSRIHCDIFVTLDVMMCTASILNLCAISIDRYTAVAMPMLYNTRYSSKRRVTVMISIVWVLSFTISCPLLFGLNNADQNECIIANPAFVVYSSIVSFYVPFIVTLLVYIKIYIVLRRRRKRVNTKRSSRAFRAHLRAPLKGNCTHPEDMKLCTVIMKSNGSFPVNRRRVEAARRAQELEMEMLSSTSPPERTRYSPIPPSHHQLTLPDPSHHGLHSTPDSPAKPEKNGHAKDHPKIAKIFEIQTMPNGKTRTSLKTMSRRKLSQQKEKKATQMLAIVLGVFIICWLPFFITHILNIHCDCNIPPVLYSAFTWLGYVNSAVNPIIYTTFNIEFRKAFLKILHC

Compound | inhibition
O=C(CSc1nc(-c2ccccc2)no1)N1CCN(c2ccccc2)CC1 | 1.1%
CCOc1ccccc1NC(=O)c1cc(S(=O)(=O)N2CCOCC2)cn1C | 10.1%
CCOC(=O)c1c(C)oc2c1cc(NS(=O)(=O)c1ccc(C)cc1)c1ccccc12 | 6.49%
CSCCC(NC(=O)c1ccco1)C(=O)N1CCN(C(c2ccccc2)c2ccccc2)CC1 (configuration not stated) | active: 34.4%
O=C(NC1CC(=O)N(c2ccc(Cl)cc2)C1)C1CCCC1 (configuration not stated) | 15.7%
COc1ccc(NC(=O)CSc2nc3c(oc4ccccc43)c(=O)n2-c2ccccc2)cc1OC | 9.3%
CCC(C)NC(=O)c1ccc2c(c1)nc1n2CCCCC1 (configuration not stated) | 1.68%
O=C(COc1cccc(Cl)c1)N1CCC(c2nc3ccccc3o2)CC1 | 15.1%
CCOc1ccc(NC(=O)CSc2nc3c([nH]c4ccccc43)c(=O)n2-c2cc(C)cc(C)c2)cc1 | 6.2%
O=C(NCc1ccccc1Cl)C1CCCN(C(=O)c2cnn(-c3ccc(F)cc3)c2-n2cccc2)C1 (configuration not stated) | 0.433%
Cc1cccc(N2CCN(C(=O)c3cnc4c(C)cccn4c3=O)CC2C)c1 (configuration not stated) | 15.9%
Cc1nc2c(-c3ccccc3)c(C)nn2c(C)c1CCC(=O)NCCc1ccccc1 | 2.33%
CC(C)c1ccc(NC(=O)N2CCN(c3ccc(Cl)c(Cl)c3)CC2)cc1 | 8.7%
CCOc1ccc(NC(=O)CSc2nc3ccsc3c(=O)n2CCCCCC(=O)O)cc1 | -3.15%
CC(=O)N1CCCc2cc(S(=O)(=O)N3CCCC(C(=O)NCc4ccc(C)cc4)C3)ccc21 (configuration not stated) | -7.54%
CCOc1ccc(NCc2nc3ccccc3n2CCOc2ccc(C)cc2)cc1 | -15.4%
COc1cccc(Cn2c(CNS(=O)(=O)c3ccc(Cl)s3)nc3cccnc32)c1 | 20.5%
CCc1ccc(-n2nc3ccc(NC(=O)COc4ccc(OC)cc4)cc3n2)cc1 | 23%
CCc1nn2c(=O)c(S(=O)(=O)Nc3ccc(C(C)C)cc3)c(C)nc2s1 | -5.37%
COc1ccc(S(=O)(=O)N(C)C)cc1NC(=O)COC(=O)Cn1cnc2ccccc2c1=O | active: 37.9%
O=C(CSc1nc2c(c(=O)[nH]1)CN(Cc1ccc3c(c1)OCO3)CC2)Nc1ccccc1Cl | -5.97%
COc1ccccc1CNC(=O)CSc1nnc(C)c2c(C)n(-c3ccccc3)nc12 | -2.02%
Cc1cccc(NC(=O)c2nc[nH]c2C(=O)N2CCc3ccccc3C2)c1 | active: 85.9%
CC1(C)C2CC[C@]1(C)C(=O)N(CCCCN1CCN(c3ccccn3)CC1)C2=O | active: 116%
Cc1ccc(CCNC(=O)c2ccc3c(c2)nc2n3CCOC2)cc1 | -8.75%

Compound | inhibition
CCOCCCn1c(SCC(=O)Nc2ccccc2Cl)nc2c(oc3ccccc32)c1=O | 13.2%
Cc1ccccc1OCCCCn1nnc2sc3c(c2c1=O)CCC(C)C3 (configuration not stated) | 5.17%
Cc1nc2sccn2c(=O)c1S(=O)(=O)Nc1cc(C(F)(F)F)ccc1Cl | 3.04%
COCCNC(=O)c1ccc(-c2nc(CS(=O)(=O)c3ccccc3)c(C)o2)cc1 | 10.8%
CN1C(=O)C2(SCC(=O)N2c2ccc(Cl)cc2)c2ccccc21 (configuration not stated) | -9.73%
CS(=O)(=O)N1CCc2cc(C(=O)Nc3ccc(C(F)(F)F)cc3)ccc21 | -15.4%
Cc1cc(C)n(-c2nc3cc(Cl)ccc3nc2N2CCN(c3ccccc3F)CC2)n1 | -20.9%
Cc1ccc(CNC(=O)CSc2nc3n[nH]c(C)c3c(=N)n2-c2ccccc2Cl)cc1 | 8.59%
Cc1ccc(S(=O)(=O)C(CNC(=O)COc2ccccc2)c2ccco2)cc1 (configuration not stated) | 4.78%
CCCOc1ccc(-c2cc(C(F)(F)F)c(C#N)c(SCCC(=O)O)n2)cc1 | 3.34%
CCCN(CCC)C(=O)Cn1c(=O)n(CCCCCC(=O)NCc2ccccc2Cl)c(=O)c2sccc21 | -8.6%
CC(C)CCNC(=O)C(Cc1ccccc1)NS(=O)(=O)c1ccc2c(c1)c(=O)n(C)c(=O)n2C (configuration not stated) | 10.8%
Cc1ccc(C2c3c(oc4ccccc4c3=O)C(=O)N2c2nnc(C)s2)cc1 (configuration not stated) | -3.89%
CCN(CCCNC(=O)CN1N=C(c2ccccc2)CCC1=O)c1ccccc1 | 13.2%
COc1ccc(C)cc1Nc1ncnc2c1c(-c1ccccc1)cn2-c1ccc(C)cc1 | -15.4%
O=c1c2sc3ccccc3c2n(Cc2ccccc2)c(=O)n1CCc1ccccc1 | -4.12%
COc1ccc(S(=O)(=O)N2CCC(C(=O)Nc3cc(C(F)(F)F)ccc3Cl)CC2)cc1 | -13.3%
COc1ccc(NC(=O)CCCN2C(=O)C3C4C=CC(C4)C3C2=O)c(OC)c1 (configuration not stated) | active: 35.3%
COc1ccc(/C=C/C(=O)NCC(=O)N/N=C/c2cc(Br)ccc2OC)cc1 | active: 69.5%
COc1ccc(OC)c2sc(N3CCN(C(=O)C4COc5ccccc5O4)CC3)nc12 (configuration not stated) | 3.85%
COc1cccc(Cc2nc3ccccc3nc2SCC(=O)Nc2cc(OC)ccc2OC)c1 | 4.79%
CCC(C)NC(=O)Cn1c(=O)n(Cc2ccc(C(=O)NCc3ccc(C)cc3)cc2)c(=O)c2ccccc21 (configuration not stated) | 3.84%
CCOc1ccccc1CNCCSc1nnnn1C | -9.72%
CCOCCn1ccc2c(OCC(=O)Nc3cccc(F)c3)cccc2c1=O | 13.2%
CCOc1cc(-c2ccc(OC(=O)c3ccccc3)c(OC)c2)cc(=O)c2c(C)oc(C)c12 | 1.81%

Compound | inhibition
Cc1cc(Cl)ccc1OCCCC(=O)N1CCN(C)CC1 | active: 32.2%
Cc1ccc2occ(CC(=O)Nc3ccc(S(=O)(=O)N4CCC(C)CC4)cc3)c2c1 | 5.38%
COc1ccc(Cl)cc1NC(=O)c1ccccc1C | active: 32.4%
O=C(Nc1cccc(F)c1)c1oc2ccccc2c1NC(=O)C12CC3CC(CC(C3)C1)C2 | -3.06%
CC(C)c1ccc(NC(=O)CCS(=O)(=O)c2ccc3c(c2)CC(=O)N3C)cc1 | 3.13%
O=S(=O)(c1ccccc1)c1nnn2c1nc(NCc1ccccc1)c1cc(Cl)ccc12 | 23.1%
Cc1cc(=O)[nH]c(SCC(=O)NCC2CCCO2)n1 (configuration not stated) | active: 34%
CCCCCn1cc2c(c1-c1ccccc1Br)c(=O)n(C)c(=O)n2C | 5.83%
O=C(NC1CCCCC1)c1ccc2c(c1)N(Cc1ccccc1Cl)C(=O)c1ccccc1S2 | -9.42%
CCOc1ccccc1NC(=O)C1CCCN1S(=O)(=O)c1ccc2nc(-c3ccccc3)[nH]c2c1 (configuration not stated) | 3.3%
COc1ccc(CCNC(=O)Cn2cc(S(=O)(=O)Cc3ccc(F)cc3)c3ccccc32)cc1OC | -0.0488%
CCOc1ccc(C(=O)c2oc3ccccc3c2NC(=O)c2cc(-c3ccc(C)cc3)on2)cc1 | -19.7%
Cc1ccc(-c2cc(C(F)(F)F)n3ncc(-c4ccccc4)c3n2)cc1 | -1.11%
Cn1nnnc1SCCCNCc1cccc(OCc2ccccc2)c1 | -1.72%
CCOc1ccc(S(=O)(=O)Nc2cccc(-c3ccc(N4CCC(C)CC4)nn3)c2)cc1 | 7.59%
O=C(NCc1ccc(Cl)cc1)NC1COc2ccccc2C1 (configuration not stated) | 6.1%
COc1ccccc1/C=C/CN1CCN(c2ccccc2)CC1 | active: 76.8%
Cc1c(C(=O)OCc2ccccc2)[nH]c2c1C(=O)CC(c1ccc(Cl)cc1)C2 (configuration not stated) | -1.67%
CC1CCN(S(=O)(=O)c2ccc3c(c2)N(CC(=O)NCC(C)c2ccccc2)C(=O)CO3)CC1 (configuration not stated) | 10.6%
CN(C)CCC=C1c2ccccc2C=Cc2ccccc21 | active: 49.1%
O=C(NCc1ccco1)c1ccc(Cn2c(SCc3ccccc3F)nc3cccnc32)cc1 | -19.3%
CN(C)c1ccc(CNC(=O)C2COc3ccccc3C2)cc1 (configuration not stated) | 0.181%
CCc1ccc(NC(=O)C2=CC(c3cccs3)=NS(=O)(=O)N2C)cc1 | 12.4%
COc1cc(NS(=O)(=O)c2c(C)nc3sc(C)c(C)n3c2=O)cc(OC)c1 | 8.32%
COc1ccc(C)c2sc(NC(=O)c3ccc(S(=O)(=O)N4CCCC4)cc3)nc12 | -16.9%

Compound | inhibition
CCOc1ccccc1CNC(=O)Cn1nc(N2CCN(c3ccccc3)CC2)ccc1=O | -2.81%
COc1ccc(C(=O)NCc2ccc3c(c2)CCN3C(=O)c2ccc(F)cc2)cc1 | 11.7%
CCOc1ccc(S(=O)(=O)Nc2ccc3oc4c(c3c2)CC(C)CC4)cc1 (configuration not stated) | -10.9%
COc1ccccc1CNC(=O)COCc1cc(-c2ccc3c(c2)OCO3)on1 | 3.97%
COc1ccc(/C=C(\C#N)c2nc3ccccc3c(=O)[nH]2)cc1OC | -12%
CC(C)CN(CC(C)C)CC(O)Cn1cc(/C=C/C(=O)c2ccccc2)c2ccccc21 (configuration not stated) | -2.26%
O=C(COc1ccc(F)cc1)OCc1cc(=O)n2nc(-c3cccs3)sc2n1 | 3%
COc1cccc(CNS(=O)(=O)c2c(C(=O)N3CCC(C)CC3)c(C)n(C)c2C)c1 | 7.74%
O=C1C(=O)N(C2CCN(C(=O)c3ccccc3F)CC2)CCN1Cc1ccc(F)cc1 | -4.33%
Cc1ccc(-c2noc(CSc3nnc(C)n3-c3ccc(C)c(C)c3)n2)cc1 | 3.16%
c1ccc2c(c1)OCC(CNCC1COc3ccccc3O1)O2 (configuration not stated) | active: 64.2%
COc1ccc(Cl)cc1NC(=O)CSc1ccc2nnc(CCNS(=O)(=O)c3ccccc3)n2n1 | 9.56%
CCCCC(=O)Nc1nnc(S(=O)(=O)N(C)Cc2ccccc2)s1 | -18.7%
CCCCCNC(=O)C1CCC(Cn2c(=O)c3sccc3n(CC(=O)NCc3cccc(OC)c3OC)c2=O)CC1 (configuration not stated) | 8.64%
CCSc1nnc2c(n1)OC(c1ccc(OC)c(OC)c1)N(C(C)=O)c1ccccc1-2 (configuration not stated) | -1.48%
CC(C)Cn1c(=S)[nH]c2cc(C(=O)O)ccc2c1=O | active: 30.6%
Cc1cccc(N(C)S(=O)(=O)c2cc3[nH]c(=O)c(=O)[nH]c3cc2C)c1 | 2.35%
O=C(Nc1ccc(NC(=O)C2CC2)nc1)c1cccnc1 | active: 38%
COc1ccccc1C(=O)Nc1nnc2n1CCS2 | 14.9%
Cc1c(Cl)cccc1NC(=O)CSc1nc(=O)n(Cc2ccco2)c2c1CCC2 | -7.36%
CC(C)OCc1cc(CN2CCN(c3cccc(C(F)(F)F)c3)CC2)c(O)c2ncccc12 | -5.2%
Cc1ccc(CCNC(=O)CN(c2ccc(C)cc2)S(=O)(=O)N(C)C)cc1 | 6.01%
